Measurements published in a compilation of properties of binary mixtures (doi:10.1021/je00013a021).
Some of these densities may be calculated back from excess volumes.

Experiment: xn = mol fraction of the nth substance listed
Conditions: 100 kPa

[Cl][Al]([Cl])[Cl] + CC[n+]1ccn(C)c1.[Cl-]
mass density [kg/m3]
Conditions | 288.15 K | 298.15 K | 308.15 K | 318.15 K | 328.15 K | 338.15 K | 348.15 K | 358.15 K | 368.15 K | 378.15 K
x1 = 0.5 | 1304.7 | 1296.7 | 1288.7 | 1280.7 | 1272.8 | 1264.8 | 1256.8 | 1248.8 | 1240.8 | 1232.8
x1 = 0.55 | 1329.1 | 1320.3 | 1312.9 | 1303.9 | 1296.2 | 1287.3 | 1278.7 | – | 1262.4 | 1254
x1 = 0.6 | 1358 | – | 1340.7 | 1331.6 | – | 1314.5 | 1305.1 | 1296.9 | 1287.9 | –
x1 = 0.6667 | 1401 | 1390.6 | 1381.9 | 1372.2 | 1362.7 | 1353.6 | 1343.5 | 1333.7 | 1324.3 | 1314.9
